Some of the results follow. Single values are uncertain, as repeats are few or missing.
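Further: cells treated in 1,536-well plates, then fixed and DAPI-stained, with nuclei counted from automated high-throughput microscope images.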

In the first test the test system is A2058. Put plainly: cell count relative to DMSO control; melanoma cells; higher = more viable cells. Particulars: library dose: standard library concentration; 72 h.
In the case of `NC(=O)c1ccc(N(C(N)=O)c2c(F)cccc2F)nc1-c1ccc(F)cc1F` + CNC(=O)c1cc(Oc2ccc(NC(=O)Nc3ccc(Cl)c(C(F)(F)F)c3)cc2)ccn1 [sorafenib] (first compound 2 µM, partner dose 2 µM), the cell count worked out at 123%.

`CCCCCCCCc1ccc(CCC(N)(CO)CO)cc1` [fingolimod] + CCCS(=O)(=O)Nc1ccc(F)c(C(=O)c2c[nH]c3ncc(Cl)cc23)c1F [PLX4720] (first compound 10 µM, partner dose 0.4 µM): the cell count is 10.3%.

For the compound `NC(=O)c1ccc(N(C(N)=O)c2c(F)cccc2F)nc1-c1ccc(F)cc1F` + Cn1nnc2c(C(N)=O)ncn2c1=O [temozolomide] (first compound 2 µM, partner dose 10 µM), the cell count was found to be 37.7%.

With `NC(=O)c1ccc(N(C(N)=O)c2c(F)cccc2F)nc1-c1ccc(F)cc1F` + COc1ccc(C2=N[C@@H](c3ccc(Cl)cc3)[C@@H](c3ccc(Cl)cc3)N2C(=O)N2CCNC(=O)C2)c(OC(C)C)c1 [Nutlin-3] (first compound 2 µM, partner dose 0.5 µM), the cell count worked out at 90.8%.

`CCCCCCCCc1ccc(CCC(N)(CO)CO)cc1` [fingolimod] + CC(=O)c1c(C)c2cnc(Nc3ccc(N4CCNCC4)cn3)nc2n(C2CCCC2)c1=O [palbociclib] (first compound 10 µM, partner dose 0.2 µM): the cell count was 53.4%.

In the case of `CCCCCCCCc1ccc(CCC(N)(CO)CO)cc1` [fingolimod] + NC1(c2ccc(-c3nc4ccn5c(=O)[nH]nc5c4cc3-c3ccccc3)cc2)CCC1 [MK2206] (first compound 10 µM, partner dose 2 µM), the cell count was 9.29%.

The compound `CN(NC(=O)CC(=O)NN(C)C(=S)c1ccccc1)C(=S)c1ccccc1` + c1cc(-c2cnn3cc(-c4ccc(OCCN5CCCCC5)cc4)cnc23)ccn1 [Dorsomorphin] (first compound 0.03 µM, partner dose 2 µM) yielded a cell count of 7.69%.

A further test has as its system A375. Described as above. The conditions noted are these: library dose: standard library concentration; 72 h.
As for `NC(=O)c1ccc(N(C(N)=O)c2c(F)cccc2F)nc1-c1ccc(F)cc1F` + O=C(O)c1ccc2c(c1)nc(Nc1cccc(Cl)c1)c1ccncc12 [CX4945] (first compound 2 µM, partner dose 2 µM), the cell count was found to be 108%.

In turn, `CCCCCCCCc1ccc(CCC(N)(CO)CO)cc1` [fingolimod] + Nc1ncn([C@H]2C[C@H](O)[C@@H](CO)O2)c(=O)n1 [decitabine] (first compound 10 µM, partner dose 0.5 µM) had a cell count of 61.2%.

`CCCCCCCCc1ccc(CCC(N)(CO)CO)cc1` [fingolimod] + Cn1c(=O)n(-c2ccc(C(C)(C)C#N)cc2)c2c3cc(-c4cnc5ccccc5c4)ccc3ncc21 [NVP-BEZ235] (first compound 10 µM, partner dose 0.02 µM) returned a cell count of 60.2%.

Take `NC(=O)c1ccc(N(C(N)=O)c2c(F)cccc2F)nc1-c1ccc(F)cc1F` + C[C@@H]1CCN(C(=O)CC#N)C[C@@H]1N(C)c1ncnc2[nH]ccc12 [CP690550] (first compound 2 µM, partner dose 5 µM): the cell count came to 109%.

Regarding `CCCCCCCCc1ccc(CCC(N)(CO)CO)cc1` [fingolimod] + CN(C)S(=O)(=O)c1ccc2c(c1)/C(=C/c1cc3c([nH]1)CCCC3)C(=O)N2 [SU6656] (first compound 10 µM, partner dose 2 µM), the cell count amounted to 40.7%.

For `CCCCCCCCc1ccc(CCC(N)(CO)CO)cc1` [fingolimod] + COc1ccc(Cl)c(Nc2nc3ccccc3nc2NS(=O)(=O)c2cccc(NC(=O)C(C)(C)N)c2)c1 [XL147] (first compound 10 µM, partner dose 4 µM), the cell count stood at 74.4%.

`CC(C)(C)c1cnc(CSc2cnc(NC(=O)C3CCNCC3)s2)o1` + CN(NC(=O)CC(=O)NN(C)C(=S)c1ccccc1)C(=S)c1ccccc1 [STA4783] (first compound 0.05 µM, partner dose 0.03 µM): the cell count turned out to be 86.7%.

With `CCCCCCCCc1ccc(CCC(N)(CO)CO)cc1` [fingolimod] + Nc1ccn([C@@H]2O[C@H](CO)[C@@H](O)C2(F)F)c(=O)n1 [gemcitabine] (first compound 10 µM, partner dose 0.002 µM), the cell count is 75%.

`CCCCCCCCc1ccc(CCC(N)(CO)CO)cc1` [fingolimod] + CC(C)(C)c1cnc(CSc2cnc(NC(=O)C3CCNCC3)s2)o1 [SNS-032] (first compound 10 µM, partner dose 0.05 µM) registered a cell count of 32.8%.

In the case of `CCCCCCCCc1ccc(CCC(N)(CO)CO)cc1` [fingolimod] + O=C(CCCCCCC(=O)Nc1ccccc1)NO [vorinostat] (first compound 10 µM, partner dose 0.4 µM), the cell count stood at 36.1%.

In the case of `NC(=O)c1ccc(N(C(N)=O)c2c(F)cccc2F)nc1-c1ccc(F)cc1F` + Clc1ccc(Nc2nnc(Cc3ccncc3)c3ccccc23)cc1 [vatalanib] (first compound 2 µM, partner dose 10 µM), the cell count worked out at 83.7%.

`NC(=O)c1ccc(N(C(N)=O)c2c(F)cccc2F)nc1-c1ccc(F)cc1F` + CCCS(=O)(=O)Nc1ccc(F)c(C(=O)c2c[nH]c3ncc(Cl)cc23)c1F [PLX4720] (first compound 2 µM, partner dose 0.4 µM) had a cell count of 95.5%.

The compound `CC(C)(C)c1cnc(CSc2cnc(NC(=O)C3CCNCC3)s2)o1` + NCC(=O)Nc1ccc(-n2nc(C(F)(F)F)cc2-c2ccc3c(ccc4ccccc43)c2)cc1 [OSU03012] (first compound 0.05 µM, partner dose 5 µM) yielded a cell count of 69%.

Turning to `NC(=O)c1ccc(N(C(N)=O)c2c(F)cccc2F)nc1-c1ccc(F)cc1F` + O=C(CCCCCCC(=O)Nc1ccccc1)NO [vorinostat] (first compound 2 µM, partner dose 0.4 µM), the cell count was determined as 146%.

`NC(=O)c1ccc(N(C(N)=O)c2c(F)cccc2F)nc1-c1ccc(F)cc1F` + CN(C)S(=O)(=O)c1ccc2c(c1)/C(=C/c1cc3c([nH]1)CCCC3)C(=O)N2 [SU6656] (first compound 2 µM, partner dose 2 µM): the cell count worked out at 103%.

As for `Cc1ccc(NC(=O)c2cccc(N(C)C)c2)cc1NC(=O)c1ccc(O)cc1` + O=C(Nc1cccc(Cl)c1)Nc1ncc(CCNc2ncnc3ccsc23)s1 [SNS314] (first compound 10 µM, partner dose 0.004 µM), the cell count came to 104%.

With `CC(C)(C)c1cnc(CSc2cnc(NC(=O)C3CCNCC3)s2)o1` + O=S(=O)(c1ccccc1)N(CC(F)(F)F)c1ccc(C(O)(C(F)(F)F)C(F)(F)F)cc1 [T0901317] (first compound 0.05 µM, partner dose 7 µM), the cell count stood at 77.6%.

As to `CC(C)(C)c1cnc(CSc2cnc(NC(=O)C3CCNCC3)s2)o1` + NC(=O)Nc1cc(-c2cccc(F)c2)sc1C(=O)N[C@H]1CCCNC1 [AZD7762] (first compound 0.05 µM, partner dose 0.1 µM), the cell count stood at 56.3%.

For `CCCCCCCCc1ccc(CCC(N)(CO)CO)cc1` [fingolimod] + C=CCn1c(=O)c2cnc(Nc3ccc(N4CCN(C)CC4)cc3)nc2n1-c1cccc(C(C)(C)O)n1 [MK1775] (first compound 10 µM, partner dose 0.1 µM), the cell count was 41.5%.

In turn, `NC(=O)c1ccc(N(C(N)=O)c2c(F)cccc2F)nc1-c1ccc(F)cc1F` + CS(=O)(=O)c1ccc(C(=O)Nc2ccc(Cl)c(-c3ccccn3)c2)c(Cl)c1 [vismodegib] (first compound 2 µM, partner dose 5 µM) displayed a cell count of 106%.

Take `CCc1ccc(CCOc2ccc(CC3SC(=O)NC3=O)cc2)nc1` (centres undefined) [pioglitazone] + O=C(O)C(=O)Nc1sc2c(c1C(=O)O)CCNC2 [TCS401] (first compound 10 µM, partner dose 8.33333 µM): the cell count came to 186%.

`CCCCCCCCc1ccc(CCC(N)(CO)CO)cc1` [fingolimod] + Cc1cc(N2CCOCC2)cc2[nH]c(-c3c(NC[C@@H](O)c4cccc(Cl)c4)cc[nH]c3=O)nc12 [BMS536924] (first compound 10 µM, partner dose 1 µM): the cell count was 29.3%.

Regarding `NC(=O)c1ccc(N(C(N)=O)c2c(F)cccc2F)nc1-c1ccc(F)cc1F` + Cn1cncc1[C@@](N)(c1ccc(Cl)cc1)c1ccc2c(c1)c(-c1cccc(Cl)c1)cc(=O)n2C [tipifarnib] (first compound 2 µM, partner dose 0.05 µM), the cell count amounted to 87.5%.

In turn, `CCCCCCCCc1ccc(CCC(N)(CO)CO)cc1` [fingolimod] + C=C(c1ccc(C(=O)O)cc1)c1cc2c(cc1C)C(C)(C)CCC2(C)C [Bexarotene] (first compound 10 µM, partner dose 10 µM) came in with a cell count of 17.5%.

With `Cc1ccc(NC(=O)c2cccc(N(C)C)c2)cc1NC(=O)c1ccc(O)cc1` + CO[C@@H]1[C@H](N(C)C(=O)c2ccccc2)C[C@H]2O[C@]1(C)n1c3ccccc3c3c4c(c5c6ccccc6n2c5c31)C(=O)NC4 [Midostaurin] (first compound 10 µM, partner dose 0.4 µM), the cell count came out at 66%.

In the case of `NC(=O)c1ccc(N(C(N)=O)c2c(F)cccc2F)nc1-c1ccc(F)cc1F` + Cc1cc(Nc2cc(N3CCN(C)CC3)nc(/C=C/c3ccccc3)n2)n[nH]1 [ENMD2076] (first compound 2 µM, partner dose 0.2 µM), the cell count turned out to be 86.6%.

`NC(=O)c1ccc(N(C(N)=O)c2c(F)cccc2F)nc1-c1ccc(F)cc1F` + OCCn1cc(-c2cnc3nnn(Cc4ccc5ncccc5c4)c3n2)cn1 [PF04217903] (first compound 2 µM, partner dose 5 µM) returned a cell count of 105%.

These data come from the supplement of paper PMC4604168 (melanoma cell lines).
